Assay results published in paper PMC4336329 (PLoS ONE, 2015).
In all, about 310,000 compounds went through this assay and about 14,000 (4.5%) showed an effect of 50% or more. The effect is printed as a negative number. The list shows a part of the results.

molecular target: human ether-à-go-go-related gene (hERG) potassium channel (human, UniProt Q12809); experiment: primary screen, population patch clamp on CHO cells stably expressing hERG
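Note: peak tail current of the secondary pulse compared with the same well before compound.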

human ether-à-go-go-related gene (hERG) potassium channel, sequence (Q12809 whole entry, looked up): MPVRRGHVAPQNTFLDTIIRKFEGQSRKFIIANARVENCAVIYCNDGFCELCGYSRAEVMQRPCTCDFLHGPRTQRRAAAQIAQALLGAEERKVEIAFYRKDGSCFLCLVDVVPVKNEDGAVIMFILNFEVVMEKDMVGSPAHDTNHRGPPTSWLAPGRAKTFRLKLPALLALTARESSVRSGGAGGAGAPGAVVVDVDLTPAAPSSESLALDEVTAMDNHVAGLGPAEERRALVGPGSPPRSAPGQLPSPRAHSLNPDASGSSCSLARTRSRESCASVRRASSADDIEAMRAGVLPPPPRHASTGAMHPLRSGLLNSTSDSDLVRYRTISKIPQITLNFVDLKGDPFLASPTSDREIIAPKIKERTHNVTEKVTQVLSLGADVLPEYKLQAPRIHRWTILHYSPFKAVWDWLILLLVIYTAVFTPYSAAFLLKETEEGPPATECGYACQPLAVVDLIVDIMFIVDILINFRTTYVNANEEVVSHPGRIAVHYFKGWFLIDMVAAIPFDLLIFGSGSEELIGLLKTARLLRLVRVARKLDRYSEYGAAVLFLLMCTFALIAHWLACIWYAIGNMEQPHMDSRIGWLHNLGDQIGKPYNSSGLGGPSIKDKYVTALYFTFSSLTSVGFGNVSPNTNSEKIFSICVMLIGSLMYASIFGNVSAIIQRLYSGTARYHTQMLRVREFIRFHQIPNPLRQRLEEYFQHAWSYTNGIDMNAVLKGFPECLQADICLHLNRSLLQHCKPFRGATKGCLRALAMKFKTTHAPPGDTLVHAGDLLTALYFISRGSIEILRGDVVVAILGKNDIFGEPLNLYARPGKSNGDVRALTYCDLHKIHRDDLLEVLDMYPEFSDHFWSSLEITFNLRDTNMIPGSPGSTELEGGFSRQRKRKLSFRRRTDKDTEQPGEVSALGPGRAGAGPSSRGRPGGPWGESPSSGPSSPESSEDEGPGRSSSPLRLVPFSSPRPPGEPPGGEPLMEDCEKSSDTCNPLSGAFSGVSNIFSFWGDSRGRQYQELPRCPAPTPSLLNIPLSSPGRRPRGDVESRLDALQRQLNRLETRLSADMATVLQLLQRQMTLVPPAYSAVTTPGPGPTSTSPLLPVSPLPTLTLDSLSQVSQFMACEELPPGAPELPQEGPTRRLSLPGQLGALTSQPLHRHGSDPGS

| SMILES | hERG current change (%, negative = inhibition) at 10uM [%] |
| --- | --- |
| COc1ccc(C2(CCN)CC(C)N(C)CC2C)cc1.Cl (stereo not drawn) | -3.79 |
| COC(=O)c1c(NC(=O)CN2CCC3(O)CCCCC3C2c2ccc(F)cc2)sc(C)c1C (stereo not drawn) | -7.57 |
| Cc1ccc(CN(Cc2cc3cc(C)ccc3[nH]c2=O)C(=O)N2CCOCC2)cc1 | -13.2 |
| CCOC(=O)Cc1csc(NC(=O)CSc2nnnn2-c2ccc(CC)cc2)n1 | -18 |
| COc1ccc(C2=NS(=O)(=O)N(C)C(C(=O)NC(C)c3ccccc3)=C2)cc1OC (stereo not drawn) | -2.67 |
| NC(=S)NNC(=O)c1ccccc1 | -10.2 |
| O=C(CCNC(=O)c1ccc(Br)cc1)Nc1ncccc1O | 21 |
| COc1ccc(/C=N/NC(=S)Nc2c(C)n(C)n(-c3ccccc3)c2=O)cc1OC | 8.52 |
| CSCC[C@H](NS(=O)(=O)c1ccc(C(C)=O)cc1)c1nnc2ccccn12 | 26.4 |
| Cc1oc(C(C)(C)C)c(CN2CCOCC2)c1C(=O)O.Cl | 23.6 |
| Cc1ccc(-c2nnc(SCC#N)n2N)cc1 | 17.5 |
| CCOC(=O)C1=C(C)Nc2ccccc2N=C1N | 9.47 |
| CCCn1c(SCC(=O)NCc2ccco2)nnc1-c1ccncc1 | 19.9 |
| COc1c(Cl)cc(C(=O)Nc2ccc(Cl)cn2)cc1Cl | 7.8 |
| Cc1ccc(S(=O)(=O)Nc2ccsc2C#N)cc1 | 18.1 |
| Cc1cccc(-n2ncc3c2CCCC3NC(=O)CCN2CCCCO2)c1C (stereo not drawn) | 12.8 |
| NC(=O)C1(N2CCCCC2)CCN(C(=O)CSc2nc(C(F)(F)F)cc(=O)[nH]2)CC1 | -8.17 |
| COc1ccc(CNC(=O)CCCn2c(SCC#N)nc3cc4c(cc3c2=O)OCO4)cc1 | 7.74 |
| Cc1cccc(C(=O)OCC(=O)NNC(=O)c2cccs2)c1O | 10.9 |
| CCN(CC)c1ccc(NC2CC(=O)N(CCc3ccc(OC)cc3)C2=O)cc1 (stereo not drawn) | -11.4 |
| O=C(NC1CCN(C(=S)NCc2ccco2)CC1)C12CC3CC(CC(C3)C1)C2 | 4.26 |
| Cn1cccc1CC(=O)NNC(=O)Nc1ccc(Cl)cc1 | 15.2 |
| Cc1nc(N)c(C#N)c(-c2ccccc2)c1C | -10.4 |

| SMILES | hERG current change (%, negative = inhibition) at 10uM [%] |
| --- | --- |
| Cc1nc(C)c(C(=O)N(c2ccc(F)cc2)C(C(=O)NCC2CCCO2)c2ccccc2)s1 (stereo not drawn) | -6.28 |
| CC(O)c1nc2c(c(=O)n(C)c(=O)n2C)n1C (stereo not drawn) | -3.51 |
| OCC1(Cc2ccccc2)CCN(C2CCN(c3ccccc3F)CC2)CC1 | -68.8 |
| Cc1ccccc1-c1cnn(-c2cccc([N+](=O)[O-])c2)c1N | -56.7 |
| CSc1nnc(Cn2c(=O)sc3ccccc32)n1C | 11.6 |
| Cc1ccc(-n2nc3c(c2NC(=O)C2CC2)CS(=O)(=O)C3)cc1 | -9.44 |
| O=C1N(Cc2cccnc2)C[C@@H]2C[C@@H](c3ccc(-c4ccccc4)cc3)N3CCC[C@@]123 | -71.3 |
| COC(=O)c1cc(S(=O)(=O)N2CCN(c3cccc(OC)c3)CC2)cn1C | 3.25 |
| CCOC(=O)C1CCN(C(=O)CCNS(=O)(=O)c2ccc(C)cc2)CC1 | -18.7 |
| c1ccc(-c2cc3c(N4CCN(c5ccccc5)CC4)ncnc3s2)cc1 | 6.09 |
| CC1CCCCN1C(=O)Cn1cnc2c1c(=O)n(C)c(=O)n2C (stereo not drawn) | 16.2 |
| CC(CC(=O)NC(C)c1ccc2c(c1)OCCO2)c1ccccc1 (stereo not drawn) | 15.6 |
| O=C(CSc1nc(O)c(C2CCCCC2)c(=O)[nH]1)Nc1ccc(Cl)cc1 | 9.72 |
| COC(=O)c1ccccc1C(=O)N1CCCC(CCC(=O)NCc2ccc(F)c(F)c2)C1 (stereo not drawn) | -10.1 |
| CN(Cc1ccccc1)c1ncnc(N)c1[N+](=O)[O-] | -4.37 |
| C=CCn1c(-c2ccc(Cl)cc2)cnc1SC(C)C(N)=O (stereo not drawn) | 24.7 |
| CC1CN=C(Nc2ccc(F)c(Cl)c2)S1 (stereo not drawn) | 2.08 |
| Cc1ccc(S(=O)(=O)N2CCOCC2)cc1NC(=O)COC(=O)c1ccccc1OCc1c(C)noc1C | -33.5 |
| O=C(OCCCOC(=O)c1cc[n+]([O-])cc1)c1cc[n+]([O-])cc1 | 3.82 |
| CC1CCCC(C)N1S(=O)(=O)c1ccc(S(=O)(=O)NCc2ccccc2)cc1 (stereo not drawn) | 8.78 |
| COc1cc(-c2nnc3n2CCCCC3)cc(OC)c1OC | 21.4 |
| CC(C)(C)OC(=O)N[C@@H](Cc1ccccc1)C(=O)N1CCC(C(=O)O)CC1 | -0.864 |
| Cc1cc(Cl)c2oc(C(=O)NCCN3CCCCC3CO)c(C)c2c1 (stereo not drawn) | -42.2 |

| SMILES | hERG current change (%, negative = inhibition) at 10uM [%] |
| --- | --- |
| CC(C)Cc1nn2c(=O)cc(O)nc2s1 | 11.3 |
| Fc1ccc(Nc2ccc3ccccc3n2)c(F)c1 | 3.37 |
| CCC1OC(c2ccc([N+](=O)[O-])cc2)=Nc2ccccc21 (stereo not drawn) | 4.03 |
| c1ccc(-c2ccc(C(c3ccccc3)n3ccnc3)cc2)cc1 (stereo not drawn) | 3.15 |
| CCNC(=S)N(CCc1c(C)[nH]c2ccc(F)cc12)Cc1cccnc1 | -26.5 |
| S=C(Nc1ccccc1Oc1ccccc1)Nc1cccc(Cl)c1Cl | 8.66 |
| COCCN1C(=O)N(c2ccc(OC)cc2)C(=O)C1CC(=O)Nc1cccc(F)c1 (stereo not drawn) | 1.87 |
| Nc1cccc(-c2cc3ccccc3oc2=O)c1 | 6.38 |
| COc1cccc(CN2CCNC(=O)C2CC(=O)N(C)Cc2nc(C)cs2)c1OC (stereo not drawn) | -1.63 |
| NNC(=O)c1ccccc1OCCOc1ccccc1 | 8.09 |
| Cn1c(Cn2c(=O)sc3ccccc32)nnc1SCc1ccccc1F | -19.9 |
| CCCCn1c(SCC(=O)NC2CCS(=O)(=O)C2)nc2cc(S(N)(=O)=O)ccc21 (stereo not drawn) | -1.95 |
| O=c1c2ccccc2[nH]c(=S)n1-c1ccc(Br)cc1 | 23.8 |
| O=C(Nc1cccc(Cl)c1)NC1CC2CCC(C1)N2Cc1cccs1 (stereo not drawn) | -28.4 |
| O=C(OCn1cncn1)c1ccc(Cl)cc1Cl | -8.6 |
| CN(C)C1(CNC(=O)C2CCN(S(=O)(=O)c3c(Cl)cccc3Cl)CC2)CCCCC1 | -67.5 |
| NS(=O)(=O)c1ccc(S(=O)(=O)N(Cc2ccccc2F)CC2CCCO2)cc1 (stereo not drawn) | -11.1 |
| CC(C)(C)n1nnnc1C(c1cccnc1)N(Cc1ccccc1)Cc1ccco1 (stereo not drawn) | -35.9 |
| O=C(Nc1ccc(Cl)cc1)Nc1cc(S(=O)(=O)N2CCOCC2)ccc1N1CCCC1 | -54.5 |
| N#CC(C#N)=C/C=C(\Nc1ccc(Cl)cc1)c1ccc(Cl)cc1 | -49.4 |
| COC(=O)C1=C(C(=O)OC)[N+]2=C3N(C(=O)NC2(C)C)[C@H](CO)C[C@@]32c3ccccc3N(Cc3ccccc3)[C@@H]12 | -11.2 |
| CC(=O)N1CCN(c2ccc(N)cc2)CC1 | 8.6 |
| CC(=O)NCCCc1nc2ccccc2n1Cc1ccc(C)cc1 | -23.6 |

| SMILES | hERG current change (%, negative = inhibition) at 10uM [%] |
| --- | --- |
| Cc1ccccc1Nc1nnc(SCC(=O)c2ccc(O)cc2O)s1 | -6.31 |
| CCCN1CCN(CCCNC(=O)CN2C(=O)c3cccnc3Oc3ccc(C)cc32)CC1 | 3.09 |
| CCC12CN3CC(CC)(CN(C1)C3c1ccccc1Cl)C2O (stereo not drawn) | -6.91 |
| O=C(NCc1ccncc1)C(=O)NCC1OCCCN1S(=O)(=O)c1ccc(F)cc1 (stereo not drawn) | 13.1 |
| COc1ccc(Cl)cc1-c1nc(-c2ccc(Br)o2)no1 | 13.3 |
| CCOc1cc(C)c(-c2onc(C(F)(F)F)c2-c2csc(C)n2)c(O)c1 | 11.9 |
| O=C(CN1CCN(Cc2ccccc2F)C1=O)NCc1cccnc1 | -5.07 |
| CC(=O)Nc1ccc(C(=O)Nc2cc(C(F)(F)F)ccc2-n2cnc3ccccc32)cc1 | -38.9 |
| c1ccc(N/N=C(\Cc2nc3ccccc3[nH]2)c2ccccc2)cc1 | 0.953 |
| Cc1csc(NC(=O)C2CCCCC2)n1 | 11.3 |
| CC(=NCC1CCCO1)c1c(O)n(C)c(=O)n(C)c1=O (stereo not drawn) | 14.8 |
| CCOc1ccc(S(=O)(=O)Nc2nc3ccccc3nc2N2CCN(C)CC2)cc1 | 3.6 |
| C=CCNC(=S)NCC=C | 6.77 |
| Cn1c(NCc2ccccc2O)nc2ccccc21 | -10.6 |
| COc1ccc(CN(C)C(=O)c2cc(-c3ccc(C)cc3C)nc3ccccc23)c(OC)c1OC | -14.6 |
| O=C(N=C1SC2CS(=O)(=O)CC2N1Cc1ccc(F)cc1)C1CC1 (stereo not drawn) | 4.63 |
| COCCNC(=O)CN(C)S(=O)(=O)c1ccc2c(c1)OCCO2 | 13.9 |
| O=C1CC(CCC(=O)NC2CC2)c2ccccc2N1 (stereo not drawn) | -10.8 |
| COc1cc(OC)cc(C(=O)N2CCN(C(=O)c3cccc(F)c3)CC2)c1 | -3.19 |
| Cc1cccc(C(C(=O)NC2CCCCC2)N(C(=O)c2csnn2)C2CC2)c1 (stereo not drawn) | 7.99 |
| CCCn1nnnc1SCC(=O)NC1CCCC1 | 20.8 |
